From article PMC4336329 (PLoS ONE, 2015) come the findings set out here.

Hit rate of the full screen: of about 310,000 compounds, about 14,000 (4.5%) showed an effect of 50% or more. Effects have a minus sign here. Some of the results follow.
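Further: peak tail current of the secondary pulse compared with the same well before compound.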

This assay deals with human ether-à-go-go-related gene (hERG) potassium channel (human, UniProt Q12809). Put plainly: primary screen, population patch clamp on CHO cells stably expressing hERG.
Sequence of human ether-à-go-go-related gene (hERG) potassium channel (Q12809 whole entry, looked up): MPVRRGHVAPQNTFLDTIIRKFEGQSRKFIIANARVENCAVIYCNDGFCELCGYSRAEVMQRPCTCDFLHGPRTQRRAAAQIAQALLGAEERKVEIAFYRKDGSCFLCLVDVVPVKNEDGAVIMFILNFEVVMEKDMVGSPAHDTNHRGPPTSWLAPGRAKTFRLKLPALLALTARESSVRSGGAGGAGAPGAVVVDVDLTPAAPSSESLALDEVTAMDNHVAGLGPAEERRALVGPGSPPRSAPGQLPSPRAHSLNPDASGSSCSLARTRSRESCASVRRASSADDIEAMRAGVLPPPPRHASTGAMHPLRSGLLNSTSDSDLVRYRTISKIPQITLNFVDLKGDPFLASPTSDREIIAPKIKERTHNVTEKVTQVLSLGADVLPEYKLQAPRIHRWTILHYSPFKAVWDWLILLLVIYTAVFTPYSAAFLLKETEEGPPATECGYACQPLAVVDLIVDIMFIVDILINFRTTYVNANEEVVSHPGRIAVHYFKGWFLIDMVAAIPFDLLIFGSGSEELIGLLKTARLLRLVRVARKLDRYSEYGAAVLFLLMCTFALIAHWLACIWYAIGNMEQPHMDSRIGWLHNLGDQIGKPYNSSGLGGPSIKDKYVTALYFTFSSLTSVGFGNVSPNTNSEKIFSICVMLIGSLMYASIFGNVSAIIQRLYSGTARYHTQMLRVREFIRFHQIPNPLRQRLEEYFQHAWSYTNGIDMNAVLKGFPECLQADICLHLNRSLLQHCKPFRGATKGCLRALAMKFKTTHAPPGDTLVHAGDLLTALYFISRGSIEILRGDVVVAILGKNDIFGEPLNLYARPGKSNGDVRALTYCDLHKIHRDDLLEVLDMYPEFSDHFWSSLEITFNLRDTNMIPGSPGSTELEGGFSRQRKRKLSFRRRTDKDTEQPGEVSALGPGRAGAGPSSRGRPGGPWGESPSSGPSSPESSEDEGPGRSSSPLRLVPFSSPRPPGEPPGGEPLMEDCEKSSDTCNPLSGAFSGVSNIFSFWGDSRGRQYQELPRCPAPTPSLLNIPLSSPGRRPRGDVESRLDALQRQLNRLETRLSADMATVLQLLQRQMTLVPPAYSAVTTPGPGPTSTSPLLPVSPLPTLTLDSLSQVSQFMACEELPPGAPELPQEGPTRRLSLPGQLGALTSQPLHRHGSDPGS
For the molecule `Cc1c(NC(=O)CS(=O)(=O)c2ccccc2)c(=O)n(-c2ccccc2)n1C`, the “hERG current change (%, negative = inhibition) at 10uM” value amounted to 4.21%.
With `Cc1ccc(S(=O)(=O)NC(=O)NC(C)(C)C)cc1` the figure was -21.3%.
In the case of `O=C(NCCCn1ccnc1)c1cc(-c2ccncc2)nc2ccccc12` it was -56.3%.
On to `COCC(=O)N1CCCC(C(=O)c2ccc(-c3ccccc3)cc2)C1` (centres unmarked), for which the “hERG current change (%, negative = inhibition) at 10uM” value was -13.5%.
As to `O=C(CSc1nc2sc3c(c2c(=O)[nH]1)CCCC3)NCCO`, the “hERG current change (%, negative = inhibition) at 10uM” value is recorded as 7.38%.
With `CC(C)(C)Cc1nnc(NC(=O)c2cc(-c3ccccc3)nc3ccccc23)s1` the figure was 11.7%; with `COc1ccc(-c2cc3c(=O)n(CC(=O)Nc4ccc(Cl)cc4)nc(C)n3n2)cc1`, 12.3%.
As to `O=C(Nc1cc(Sc2ccccn2)cc([N+](=O)[O-])c1)c1ccc(Cl)cc1`, the “hERG current change (%, negative = inhibition) at 10uM” value stood at 11.6%.
Turning to `Cc1ccc(OCC(=O)N2CCN(C3CCC(c4ccccc4)CC3)CC2)cc1.O=C(O)C(=O)O` (centres unmarked), the “hERG current change (%, negative = inhibition) at 10uM” value was -62.8%.
In the case of `O=C(COC(=O)/C=C/c1ccc(OC(F)F)cc1)NC(=O)NCc1ccccc1` it was 0.96%; in that of `Cc1ccc(OCc2nnc(SCC(=O)NC3CCCCC3)n2C)cc1`, -19.5%; in that of `Cn1c(CNC(=O)c2cccs2)nnc1SCC(=O)Nc1ccc(Cl)cc1`, -35.4%.
Regarding `CC(C)CCOc1ccc(CO[C@@H]2[C@H]3OC(C)(C)O[C@H]3O[C@@H]2C(O)CO)cc1` (some centres unmarked), the “hERG current change (%, negative = inhibition) at 10uM” value worked out at 19.7%.
`CCOC(=O)C1=C(CN2CCc3ccccc32)NC(=O)NC1c1cc(C)ccc1C` (centres unmarked): the “hERG current change (%, negative = inhibition) at 10uM” value is recorded as 0.809%.
In the case of `C=CCSc1nc(=O)n2ccc(C)cc2n1` it was -22.9%; in that of `COCCNc1nc2ccccc2n2cnnc12`, 14.3%; in that of `NC(=O)Cc1c[nH]c2cccc(O)c12`, -0.942%.
For the molecule `COc1ccc(NC(=O)Cc2coc3cc(C)ccc23)cc1S(=O)(=O)N1CCOCC1`, the “hERG current change (%, negative = inhibition) at 10uM” value was -21.4%.
Turning to `CC(C)Sc1oc(-c2ccco2)nc1S(=O)(=O)c1ccccc1`, the “hERG current change (%, negative = inhibition) at 10uM” value is -5.66%.
In the case of `COc1cnc(-c2ccccn2)nc1N(C)c1ccccc1` it was 14.2%; in that of `COC(=O)/C(=C\Nc1ccc(Cl)cc1Cl)NC(=O)c1ccc(OC)cc1`, 5.27%.
For the molecule `Cc1ccc(C2NC(=S)NC3=C2C(=O)CC(C)(C)C3)cc1` (centres unmarked), the “hERG current change (%, negative = inhibition) at 10uM” value is -1.44%.
With `COc1cc(C2C3C(C)N(C)C(=O)N(C)C3N(C)C(=O)N2C)ccc1O` (centres unmarked), the “hERG current change (%, negative = inhibition) at 10uM” value is given as 21.4%.
In the case of `O=C(O)CCC(=O)NNC(=O)c1ccc(-c2ccccc2)cc1` it was 6.3%.
Regarding `COc1ccc(C(CNC(=O)Cc2cc(OC)c(OC)c(OC)c2)N2CCCC2)cc1` (centres unmarked), the “hERG current change (%, negative = inhibition) at 10uM” value was -6.97%.
In the case of `CC(C)(C)NC(=O)NC(=O)COC(=O)CNC(=O)c1cccc(F)c1` it was 4.73%; in that of `Cc1nnc(NC(=O)CSc2nnc(-c3ccco3)n2C(C)C)s1`, 6.21%.
`OCCN1CCN(CC(O)C(F)(F)F)CC1` (centres unmarked): the “hERG current change (%, negative = inhibition) at 10uM” value is given as 4.71%.
In the case of `O=C(CNCc1ccccc1)Nc1ccccc1-c1ccccc1` it was -27.1%.
On to `CN(CCO)C(=O)c1cccc2c1-c1ccccc1C2=O`, for which the “hERG current change (%, negative = inhibition) at 10uM” value is 4.12%.
As to `CCC(=O)N1COC[C@@H]1Cc1ccccc1`, the “hERG current change (%, negative = inhibition) at 10uM” value is 25.4%.
In the case of `Cc1nc2ccccc2c(=O)n1N` it was 3.04%; in that of `CCN(CC)CCNC(=O)c1ccc(NC(=O)c2cccc(-n3cnnn3)c2)cc1`, 3.02%; in that of `Cc1c(NC(=S)N/N=C/C=C/c2ccc([N+](=O)[O-])cc2)c(=O)n(-c2ccccc2)n1C`, 1.47%.
For the molecule `S=C(Nc1ccccc1)NC1CCN(Cc2ccccc2)CC1`, the “hERG current change (%, negative = inhibition) at 10uM” value is on record as -39.6%.
Turning to `CCOC(=O)c1ccccc1NC(=O)COC(=O)C1CC(=O)N(CCc2ccccc2)C1` (centres unmarked), the “hERG current change (%, negative = inhibition) at 10uM” value is -75.6%.
In the case of `COC(=O)c1cc(C(=O)OCC(=O)NC2CCCC2)cc([N+](=O)[O-])c1` it was -6.58%; in that of `Cc1ccc(N(CC(=O)NCC(O)c2ccccc2)S(=O)(=O)c2ccc(C)cc2)cc1` (centres unmarked), -65.9%; in that of `COc1ccccc1C(=O)OCC(=O)NC1CCCC1`, 10.6%.
With `CC1CCN(CCCNC(=O)C2CCC(CNS(=O)(=O)c3ccccc3)CC2)CC1` (centres unmarked) the figure was 5.02%; with `CCOc1ccc2nc(NC(=O)c3ccc(C)o3)sc2c1`, 24.8%.
With `COc1ccc(OC)c(NC(=O)CCN2CCCC(C)C2)c1.Cl` (centres unmarked) the figure was -8.33%; with `CC/C(Cc1ccccc1)=N/NC(=O)c1cccc(Br)c1`, -1.72%; with `O=C(CN1C(=O)NC2(CCCCC2)C1=O)NC1CCCc2ccccc21` (centres unmarked), -16.9%.
